{
  "source": "paper PMC12820563",
  "note": "The other results are listed elsewhere or left out. The list includes weakly bound sequences.",
  "data": [
    {"molecular_target": "T1, MBP-FoxP3dN (UniProt Q99JB6)", "T1 sequence": "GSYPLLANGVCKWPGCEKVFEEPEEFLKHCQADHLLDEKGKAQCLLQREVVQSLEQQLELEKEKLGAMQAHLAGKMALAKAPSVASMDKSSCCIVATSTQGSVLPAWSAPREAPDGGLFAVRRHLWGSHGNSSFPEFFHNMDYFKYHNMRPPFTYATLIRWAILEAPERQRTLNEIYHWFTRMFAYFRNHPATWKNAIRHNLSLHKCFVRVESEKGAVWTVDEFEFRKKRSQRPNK", "assay": "PD-seq (MBP pull-down with sequencing)", "conditions": "20 mM Tris-HCl pH 7.5, 100 mM NaCl, 1.5 mM MgCl2, 0.4 uM protein, 0.1 uM dsDNA library, 30 min, room temperature, amylose pull-down; high values mean tight binding; double strand, one strand shown", "values": [
      {"sequence": "GATGATTGTTCTCCCAGCTGATGAATTGATGCAGTCGAGTAAACAAATTTTCCTAATCTTTCTGTTCAAGCGCCATCTAC", "binding signal (RPM ratio (pull-down/input))": 3.37},
      {"sequence": "GATGATTGTTCTCCCAGCTGATGAATTAACTAAATCGAGTAAACAAATTTTCCTAATCTTTCTGTTCAAGCGCCATCTAC", "binding signal (RPM ratio (pull-down/input))": 0.19},
      {"sequence": "GATGATTGTTCTCCCAGCTGATGAATTTTACATCTCGAGTAAACAAATTTTCCTAATCTTTCTGTTCAAGCGCCATCTAC", "binding signal (RPM ratio (pull-down/input))": 0.446},
      {"sequence": "GATGATTGTTCTCCCAGCTGATGAATTTAGCCCGTCGAGTAAACAAATTTTCCTAATCTTTCTGTTCAAGCGCCATCTAC", "binding signal (RPM ratio (pull-down/input))": 1.59},
      {"sequence": "GATGATTGTTCTCCCAGCTGATGAATTGACACGCTCGAGTAAACAAATTTTCCTAATCTTTCTGTTCAAGCGCCATCTAC", "binding signal (RPM ratio (pull-down/input))": 0.497},
      {"sequence": "GATGATTGTTCTCCCAGCTGATGAATTAGATGCATCGAGTAAACAAATTTTCCTAATCTTTCTGTTCAAGCGCCATCTAC", "binding signal (RPM ratio (pull-down/input))": 2.95},
      {"sequence": "GATGATTGTTCTCCCAGCTGATGAATTTCACATCTCGAGTAAACAAATTTTCCTAATCTTTCTGTTCAAGCGCCATCTAC", "binding signal (RPM ratio (pull-down/input))": 0.58},
      {"sequence": "GATGATTGTTCTCCCAGCTGATGAATTGGAGATTTCGAGTAAACAAATTTTCCTAATCTTTCTGTTCAAGCGCCATCTAC", "binding signal (RPM ratio (pull-down/input))": 0.315},
      {"sequence": "GATGATTGTTCTCCCAGCTGATGAATTGCTTCGCTCGAGTAAACAAATTTTCCTAATCTTTCTGTTCAAGCGCCATCTAC", "binding signal (RPM ratio (pull-down/input))": 0.445},
      {"sequence": "GATGATTGTTCTCCCAGCTGATGAATTCCATGAATCGAGTAAACAAATTTTCCTAATCTTTCTGTTCAAGCGCCATCTAC", "binding signal (RPM ratio (pull-down/input))": 0.262},
      {"sequence": "GATGATTGTTCTCCCAGCTGATGAATTGGACGGCTCGAGTAAACAAATTTTCCTAATCTTTCTGTTCAAGCGCCATCTAC", "binding signal (RPM ratio (pull-down/input))": 0.227},
      {"sequence": "GATGATTGTTCTCCCAGCTGATGAATTTCAAAGGTCGAGTAAACAAATTTTCCTAATCTTTCTGTTCAAGCGCCATCTAC", "binding signal (RPM ratio (pull-down/input))": 0.186},
      {"sequence": "GATGATTGTTCTCCCAGCTGATGAATTGTCCTCATCGAGTAAACAAATTTTCCTAATCTTTCTGTTCAAGCGCCATCTAC", "binding signal (RPM ratio (pull-down/input))": 0.396},
      {"sequence": "GATGATTGTTCTCCCAGCTGATGAATTTTTTGCATCGAGTAAACAAATTTTCCTAATCTTTCTGTTCAAGCGCCATCTAC", "binding signal (RPM ratio (pull-down/input))": 1.37},
      {"sequence": "GATGATTGTTCTCCCAGCTGATGAATTGTGTGTTTCGAGTAAACAAATTTTCCTAATCTTTCTGTTCAAGCGCCATCTAC", "binding signal (RPM ratio (pull-down/input))": 4.97},
      {"sequence": "GATGATTGTTCTCCCAGCTGATGAATTTTCTTGGTCGAGTAAACAAATTTTCCTAATCTTTCTGTTCAAGCGCCATCTAC", "binding signal (RPM ratio (pull-down/input))": 0.357},
      {"sequence": "GATGATTGTTCTCCCAGCTGATGAATTGGCCAGTTCGAGTAAACAAATTTTCCTAATCTTTCTGTTCAAGCGCCATCTAC", "binding signal (RPM ratio (pull-down/input))": 0.301},
      {"sequence": "GATGATTGTTCTCCCAGCTGATGAATTAAGACCCTCGAGTAAACAAATTTTCCTAATCTTTCTGTTCAAGCGCCATCTAC", "binding signal (RPM ratio (pull-down/input))": 0.354},
      {"sequence": "GATGATTGTTCTCCCAGCTGATGAATTCTTAGCTTCGAGTAAACAAATTTTCCTAATCTTTCTGTTCAAGCGCCATCTAC", "binding signal (RPM ratio (pull-down/input))": 0.274},
      {"sequence": "GATGATTGTTCTCCCAGCTGATGAATTAACTGCCTCGAGTAAACAAATTTTCCTAATCTTTCTGTTCAAGCGCCATCTAC", "binding signal (RPM ratio (pull-down/input))": 0.42},
      {"sequence": "GATGATTGTTCTCCCAGCTGATGAATTAGTGAAATCGAGTAAACAAATTTTCCTAATCTTTCTGTTCAAGCGCCATCTAC", "binding signal (RPM ratio (pull-down/input))": 0.414},
      {"sequence": "GATGATTGTTCTCCCAGCTGATGAATTATACTGCTCGAGTAAACAAATTTTCCTAATCTTTCTGTTCAAGCGCCATCTAC", "binding signal (RPM ratio (pull-down/input))": 0.496},
      {"sequence": "GATGATTGTTCTCCCAGCTGATGAATTCCCGGGTTCGAGTAAACAAATTTTCCTAATCTTTCTGTTCAAGCGCCATCTAC", "binding signal (RPM ratio (pull-down/input))": 0.27},
      {"sequence": "GATGATTGTTCTCCCAGCTGATGAATTGTAAGTGTCGAGTAAACAAATTTTCCTAATCTTTCTGTTCAAGCGCCATCTAC", "binding signal (RPM ratio (pull-down/input))": 0.84},
      {"sequence": "GATGATTGTTCTCCCAGCTGATGAATTACAGGAGTCGAGTAAACAAATTTTCCTAATCTTTCTGTTCAAGCGCCATCTAC", "binding signal (RPM ratio (pull-down/input))": 0.277},
      {"sequence": "GATGATTGTTCTCCCAGCTGATGAATTGTAGACATCGAGTAAACAAATTTTCCTAATCTTTCTGTTCAAGCGCCATCTAC", "binding signal (RPM ratio (pull-down/input))": 0.874},
      {"sequence": "GATGATTGTTCTCCCAGCTGATGAATTGTGAGGCTCGAGTAAACAAATTTTCCTAATCTTTCTGTTCAAGCGCCATCTAC", "binding signal (RPM ratio (pull-down/input))": 0.816},
      {"sequence": "GATGATTGTTCTCCCAGCTGATGAATTTGTGACCTCGAGTAAACAAATTTTCCTAATCTTTCTGTTCAAGCGCCATCTAC", "binding signal (RPM ratio (pull-down/input))": 2.34},
      {"sequence": "GATGATTGTTCTCCCAGCTGATGAATTAAGAAATTCGAGTAAACAAATTTTCCTAATCTTTCTGTTCAAGCGCCATCTAC", "binding signal (RPM ratio (pull-down/input))": 0.453},
      {"sequence": "GATGATTGTTCTCCCAGCTGATGAATTACCCGGGTCGAGTAAACAAATTTTCCTAATCTTTCTGTTCAAGCGCCATCTAC", "binding signal (RPM ratio (pull-down/input))": 0.174},
      {"sequence": "GATGATTGTTCTCCCAGCTGATGAATTGAGGACATCGAGTAAACAAATTTTCCTAATCTTTCTGTTCAAGCGCCATCTAC", "binding signal (RPM ratio (pull-down/input))": 0.395}
    ]}
  ]
}
